# The list shows a part of the results.
# B1: Mg3lysM (Mycosphaerella graminicola) (protein)
# chain: APQNPPTSCSAAPQPTGTGSPGTVCGSTTFTNYTVKAGDTLGAIAKQYNSGVCDIAKVNGIDNPDYIKPDQVLSIPANCVTPDNTSCVKPVPVITNTCVLGVGSTYTVKSGDSFSAIATSFNITLASLEARNPQIPNYDLIFPGQVINTPLCPNSVCDSIGTYVIESGDIFYNLAQSNNVTVGQLESLNVNVNVTDIHPGDIIILPHNCHNITASA
# Columns and labels:
# Assay in all cases: glycan array binding signal (z-score within array); higher = stronger binding
# Details in all cases: glycan notation: IUPAC condensed, linker removed
# [1] = target: Gal(b1-4)GlcNAc(b1-2)Man(a1-6)[Man(a1-3)]Man(b1-4)GlcNAc(b1-4)GlcNAc
# Method in brief: (§1)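 The binding signal is a Z-score computed within each array. Data were drawn from 3228 arrays in the Consortium for Functional Glycomics database, restricted to those with a known protein sequence. Scores were averaged over arrays of the same protein sequence at different concentrations or buffers, and over linkers, and negative values can be taken as non-binding.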
# [2] = target: Gal(b1-4)GlcNAc(b1-2)[Gal(b1-4)GlcNAc(b1-4)]Man(a1-3)[Gal(b1-4)GlcNAc(b1-2)Man(a1-6)]Man(b1-4)GlcNAc(b1-4)GlcNAc
# Method in brief: as §1
# [3] = target: Gal(b1-4)GlcNAc(b1-2)[Gal(b1-4)GlcNAc(b1-4)]Man(a1-3)[Gal(b1-4)GlcNAc(b1-2)[Gal(b1-4)GlcNAc(b1-6)]Man(a1-6)]Man(b1-4)GlcNAc(b1-4)GlcNAc
# Method in brief: as §1
# [4] = target: Gal(b1-4)GlcNAc(b1-2)[Gal(b1-4)GlcNAc(b1-4)]Man(a1-3)[GlcNAc(b1-4)][Gal(b1-4)GlcNAc(b1-2)Man(a1-6)]Man(b1-4)GlcNAc(b1-4)GlcNAc
# Method in brief: as §1
# [5] = target: Gal(b1-4)GlcNAc(b1-2)[Gal(b1-4)GlcNAc(b1-4)]Man(a1-3)[GlcNAc(b1-4)][Gal(b1-4)GlcNAc(b1-2)[Gal(b1-4)GlcNAc(b1-6)]Man(a1-6)]Man(b1-4)GlcNAc(b1-4)GlcNAc
# Method in brief: as §1
# [6] = target: Gal(b1-4)GlcNAc(b1-2)[Gal(b1-4)GlcNAc(b1-6)]Man(a1-6)[Gal(b1-4)GlcNAc(b1-2)Man(a1-3)]Man(b1-4)GlcNAc(b1-4)GlcNAc
# Method in brief: as §1
# [7] = target: Gal(b1-4)GlcNAc(b1-2)[Gal(b1-4)GlcNAc(b1-6)]Man(a1-6)[Gal(b1-4)GlcNAc(b1-2)Man(a1-3)]Man(b1-4)GlcNAc(b1-4)[Fuc(a1-6)]GlcNAc
# Method in brief: as §1
# [8] = target: Gal(b1-4)GlcNAc(b1-2)[Gal(b1-4)GlcNAc(b1-6)]Man(a1-6)[GlcNAc(b1-4)][Gal(b1-4)GlcNAc(b1-2)Man(a1-3)]Man(b1-4)GlcNAc(b1-4)GlcNAc
# Method in brief: as §1
# [9] = target: Gal(b1-4)GlcNAc(b1-2)[Gal(b1-4)GlcNAc(b1-6)]Man(a1-6)[GlcNAc(b1-4)][Gal(b1-4)GlcNAc(b1-2)[Gal(b1-4)GlcNAc(b1-4)]Man(a1-3)]Man(b1-4)GlcNAc(b1-4)[Fuc(a1-6)]GlcNAc
# Method in brief: as §1
# [10] = target: Gal(b1-4)GlcNAc(b1-3)Gal(b1-3)GalNAc
# Method in brief: as §1
# [11] = target: Gal(b1-4)GlcNAc(b1-3)Gal(b1-3)GlcNAc
# Method in brief: as §1
# [12] = target: Gal(b1-4)GlcNAc(b1-3)Gal(b1-4)Glc
# Method in brief: as §1
# [13] = target: Gal(b1-4)GlcNAc(b1-3)Gal(b1-4)GlcNAc
# Method in brief: as §1
# [14] = target: Gal(b1-4)GlcNAc(b1-3)Gal(b1-4)GlcNAc(b1-2)Man(a1-3)[Gal(b1-4)GlcNAc(b1-3)Gal(b1-4)GlcNAc(b1-2)Man(a1-6)]Man(b1-4)GlcNAc(b1-4)GlcNAc
# Method in brief: as §1
# [15] = target: Gal(b1-4)GlcNAc(b1-3)Gal(b1-4)GlcNAc(b1-2)Man(a1-3)[Gal(b1-4)GlcNAc(b1-3)Gal(b1-4)GlcNAc(b1-2)Man(a1-6)]Man(b1-4)GlcNAc(b1-4)[Fuc(a1-6)]GlcNAc
# Method in brief: as §1
# [16] = target: Gal(b1-4)GlcNAc(b1-3)Gal(b1-4)GlcNAc(b1-2)[Gal(b1-4)GlcNAc(b1-3)Gal(b1-4)GlcNAc(b1-6)]Man(a1-6)[Gal(b1-4)GlcNAc(b1-3)Gal(b1-4)GlcNAc(b1-2)Man(a1-3)]Man(b1-4)GlcNAc(b1-4)GlcNAc
# Method in brief: as §1
# [17] = target: Gal(b1-4)GlcNAc(b1-3)Gal(b1-4)GlcNAc(b1-2)[Gal(b1-4)GlcNAc(b1-3)Gal(b1-4)GlcNAc(b1-6)]Man(a1-6)[Gal(b1-4)GlcNAc(b1-3)Gal(b1-4)GlcNAc(b1-2)Man(a1-3)]Man(b1-4)GlcNAc(b1-4)[Fuc(a1-6)]GlcNAc
# Method in brief: as §1
# [18] = target: Gal(b1-4)GlcNAc(b1-3)Gal(b1-4)GlcNAc(b1-3)Gal(b1-4)GlcNAc
# Method in brief: as §1
# [19] = target: Gal(b1-4)GlcNAc(b1-3)Gal(b1-4)GlcNAc(b1-3)Gal(b1-4)GlcNAc(b1-2)Man(a1-3)[Gal(b1-4)GlcNAc(b1-3)Gal(b1-4)GlcNAc(b1-3)Gal(b1-4)GlcNAc(b1-2)Man(a1-6)]Man(b1-4)GlcNAc(b1-4)GlcNAc
# Method in brief: as §1
# [20] = target: Gal(b1-4)GlcNAc(b1-3)Gal(b1-4)GlcNAc(b1-3)Gal(b1-4)GlcNAc(b1-2)Man(a1-3)[Gal(b1-4)GlcNAc(b1-3)Gal(b1-4)GlcNAc(b1-3)Gal(b1-4)GlcNAc(b1-2)Man(a1-6)]Man(b1-4)GlcNAc(b1-4)[Fuc(a1-6)]GlcNAc
# Method in brief: as §1
# [21] = target: Gal(b1-4)GlcNAc(b1-3)Gal(b1-4)GlcNAc(b1-3)Gal(b1-4)GlcNAc(b1-2)[Gal(b1-4)GlcNAc(b1-3)Gal(b1-4)GlcNAc(b1-3)Gal(b1-4)GlcNAc(b1-6)]Man(a1-6)[Gal(b1-4)GlcNAc(b1-3)Gal(b1-4)GlcNAc(b1-3)Gal(b1-4)GlcNAc(b1-2)Man(a1-3)]Man(b1-4)GlcNAc(b1-4)[Fuc(a1-6)]GlcNAc
# Method in brief: as §1
# [22] = target: Gal(b1-4)GlcNAc(b1-3)Gal(b1-4)GlcNAc(b1-3)Gal(b1-4)GlcNAc(b1-3)Gal(b1-4)GlcNAc(b1-2)Man(a1-3)[Gal(b1-4)GlcNAc(b1-3)Gal(b1-4)GlcNAc(b1-3)Gal(b1-4)GlcNAc(b1-3)Gal(b1-4)GlcNAc(b1-2)Man(a1-6)]Man(b1-4)GlcNAc(b1-4)GlcNAc
# Method in brief: as §1
binder,measurement,setting,value
B1,glycan array binding signal (z-score),[1],0
same,glycan array binding signal (z-score),[2],-0.021
same,glycan array binding signal (z-score),[3],-0.029
same,glycan array binding signal (z-score),[4],-0.065
same,glycan array binding signal (z-score),[5],-0.023
same,glycan array binding signal (z-score),[6],-0.094
same,glycan array binding signal (z-score),[7],-0.096
same,glycan array binding signal (z-score),[8],-0.113
same,glycan array binding signal (z-score),[9],-0.081
same,glycan array binding signal (z-score),[10],-0.133
same,glycan array binding signal (z-score),[11],-0.085
same,glycan array binding signal (z-score),[12],-0.067
same,glycan array binding signal (z-score),[13],-0.09
same,glycan array binding signal (z-score),[14],-0.112
same,glycan array binding signal (z-score),[15],-0.044
same,glycan array binding signal (z-score),[16],-0.074
same,glycan array binding signal (z-score),[17],0.04
same,glycan array binding signal (z-score),[18],-0.08
same,glycan array binding signal (z-score),[19],-0.071
same,glycan array binding signal (z-score),[20],-0.107
same,glycan array binding signal (z-score),[21],-0.002
same,glycan array binding signal (z-score),[22],0.039

# — the supplement of paper PMC8728848
